# The other results are listed elsewhere or left out. Sequences were assembled here from the parent chain. Values near 0.05 are background.
# B1: TEV protease; numbered along this chain (parent)
# chain: MGESLFKGPRDYNPISSSICHLTNESDGHTTSLYGIGFGPFIITNKHLFRRNNGTLVVQSLHGVFKVKDTTTLQQHLVDGRDMIIIRMPKDFPPFPQKLKFREPQREERICLVTTNFQTKSMSSMVSDTSCTFPSGDGIFWKHWIQTKDGQCGSPLVSTRDGFIVGIHSASNFTNTNNYFTSVPKNFMELLTNQEAQQWVSGWRLNADSVLWGGHKVFMVKPEEPFQPVKEATQL
# Variants of: B1
# Assay: raw area under fraction-flipped curve 0-4 h after induction (AUC4h, not background-subtracted), DNA-recorder readout of cleavage of the substrate (dimensionless); higher = more cleavage of the substrate by the protease variant
# Conditions: temperature: 34 °C; time window: 0-4 h after rhamnose induction
# Description: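 In vivo DNA recorder in E. coli TOP10(DE3) ΔrhaA at 34 °C. Each TEVp single-site mutant (parent TEVp 0) is paired with a single-site variant of the 7-mer TEVs (canonical ENLYFQ|S). The substrate sits between flexible linkers in a Bxb1-sfGFP-TEVs-SsrA fusion, so cleavage stabilises Bxb1 and speeds flipping of a recombination array, read by NGS. The value is the raw area under the fraction-flipped curve over 0-4 h after rhamnose induction (AUC4h), with ≥20 reads per time point. It is not background-subtracted; inactive controls average about 0.047.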
# 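Also: Bxb1 expression induced with 0.2% (w/v) L-rhamnose at OD600 near 0.5, cultures sampled hourly, flipped fraction per protease–substrate barcode pair counted by paired-end Illumina sequencing.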
Variant,area with substrate ENLAFQS,area with substrate ENLEFQS,area with substrate ENLFFQS,area with substrate ENLHFQS,area with substrate ENLKFQS,area with substrate ENLLFQS,area with substrate ENLPFQS,area with substrate ENLWFQS,area with substrate ENLDFQS,area with substrate ENLIFQS,area with substrate ENLMFQS,area with substrate ENLNFQS,area with substrate ENLQFQS,area with substrate ENLRFQS,area with substrate ENLSFQS,area with substrate ENLGFQS,area with substrate ENLCFQS,area with substrate ENLTFQS,area with substrate ENLVFQS
I85D,0.023,0.0437,0.047,0.0269,0.0543,0.0348,0.041,0.057,,,,,,,,,,,
I85V,0.0542,0.0684,0.0772,0.0667,0.0583,,0.0514,0.0701,0.0624,0.0759,0.12,0.0676,0.0548,0.065,0.062,,,,
I110Q,0.0629,0.0539,0.0596,0.0608,0.0746,0.0718,0.0523,,0.0645,,,,,,0.0642,0.0679,,,
I110M,0.0417,0.0463,0.0663,0.0647,0.0368,0.064,0.057,,0.0751,,,0.0598,0.0481,0.0516,0.0708,0.0653,0.0636,0.069,
E107S,0.064,,0.0908,0.0664,0.0674,0.0732,0.0422,0.0644,0.0653,,0.0786,0.0656,0.0627,0.0703,0.069,0.0584,0.0801,0.067,0.0648
E107M,0.0586,,0.0698,,0.0696,,0.0498,,,0.053,0.0532,,0.0641,0.0757,0.0722,0.0748,0.0923,,
K100S,0.0649,0.0671,0.0819,0.0668,0.0737,,0.0583,,0.0433,0.0986,0.0688,0.0639,0.0656,0.0732,0.0962,0.0711,0.0698,0.0395,0.0911
G63D,0.0336,0.056,0.0849,0.0541,0.0476,,0.059,,0.105,0.0675,,0.056,0.0603,0.0642,0.0503,0.0463,0.0806,,0.0698
Q74F,0.0639,,0.0758,0.074,0.0638,0.0658,,0.0634,0.0662,0.079,,0.0649,,0.0606,,0.0848,0.0744,,0.0561
Q74W,0.0655,,0.0713,0.0683,0.0614,,0.0771,0.0424,0.0743,0.128,0.0753,,,0.0674,0.0699,0.0722,0.0653,,
Q74E,0.0696,,0.0636,0.0818,0.0834,,0.0702,,0.0492,,0.102,0.0607,0.0703,0.0651,0.0568,0.0869,0.0593,,
I86E,0.0466,,0.0352,0.036,0.0393,0.0325,0.0347,0.0365,0.032,,,0.0478,,0.0388,0.057,,0.0363,,
T70W,0.0621,0.0603,0.0756,0.0624,0.0699,0.0565,0.0625,,0.0626,0.0729,0.0679,0.0668,0.0678,0.0627,0.0637,,0.0677,,0.0595
T70A,0.0624,0.0534,0.0586,,0.0674,,0.0374,,0.0818,0.0727,,,,,0.0541,,,,
K68Q,0.0854,,0.0648,0.0686,0.0929,0.0669,,0.0705,0.0711,0.0813,0.0625,0.0704,0.061,0.0906,,0.0587,0.0465,,
K68L,0.0636,0.0704,0.0793,0.0752,0.0686,0.0763,0.0441,0.0636,0.0577,0.0795,0.0694,0.0607,,0.0702,0.0615,,0.0743,,0.0623
K68E,0.0706,0.061,0.0853,0.0614,0.0759,0.0777,,0.075,0.0608,0.102,0.0835,0.0667,,,0.0574,0.0644,0.1,,0.101
S60E,0.0494,0.0535,0.0499,0.0469,0.0536,0.0531,0.0483,0.0358,0.0502,0.0561,0.0544,0.0608,,,0.047,,0.0532,0.0611,0.0738
S60Q,0.0487,0.064,0.0857,0.0697,0.0658,0.0776,0.0511,,0.0683,0.0691,0.0693,0.0676,,,0.0767,0.0871,,,
S60D,0.0411,0.0632,0.0824,0.0691,0.0697,0.0659,,,0.0554,0.0715,0.0822,0.0616,,0.0636,0.0704,,,0.0503,
S123V,0.0602,0.0663,0.0581,0.0749,0.0816,0.0486,0.0533,,0.0806,0.0894,,0.0425,,0.0742,0.0682,0.0865,0.0789,,
R106H,0.0683,0.0655,0.0883,0.0714,0.0732,0.079,0.0649,0.0728,0.067,0.0636,,0.0777,0.0748,0.0724,0.0655,0.0846,0.0876,,0.0798
R106W,0.0729,0.0636,0.0802,0.0858,0.0754,0.115,0.0676,0.0542,0.0624,0.0745,0.065,0.0668,0.0704,0.0757,0.062,0.0858,0.0687,,0.0805
R102D,0.0334,,0.0819,0.0382,0.0478,,0.0528,,0.0509,,0.0473,,0.0359,0.0476,0.0491,,0.0472,,0.054
R102W,0.0552,0.0537,0.0568,0.0549,0.0513,0.02,0.0426,,0.0509,,0.0706,0.0557,0.0521,,0.0553,,,,0.0378

# Source: the supplement of paper PMC12217912
